Experimental findings from the BET-seq Pho4 binding data (Le et al. 2018) are described below.

This is one part of the list. The energies were worked out here from pooled read counts, against the library average; single values are noisy.

The test has as its target T1, Pho4 (S. cerevisiae) (UniProt P07270).
T1 sequence: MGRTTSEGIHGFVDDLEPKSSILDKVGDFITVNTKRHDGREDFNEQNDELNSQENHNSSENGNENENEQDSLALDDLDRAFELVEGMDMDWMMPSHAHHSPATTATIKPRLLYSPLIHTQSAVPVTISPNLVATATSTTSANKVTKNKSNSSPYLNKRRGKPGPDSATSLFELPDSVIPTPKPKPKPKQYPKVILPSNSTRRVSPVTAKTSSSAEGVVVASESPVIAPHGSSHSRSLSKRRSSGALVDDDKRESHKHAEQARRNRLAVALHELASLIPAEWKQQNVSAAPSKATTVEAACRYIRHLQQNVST
Put plainly: relative binding free energy (BET-seq); higher = weaker binding. As to conditions: reference: library average.
Regarding AATTTCACGTGAGTTT, the “relative binding free energy” value came to 0.43 kcal/mol.

For the sequence GCGTTCACGTGTTAGT, the “relative binding free energy” value is 0.22 kcal/mol.

With TATAGCACGTGGATGA, the “relative binding free energy” value was -0.1 kcal/mol. The figure for GGGAACACGTGAGTAG is 0.37 kcal/mol.

Take AATGGCACGTGGGATC: the “relative binding free energy” value was -0.12 kcal/mol.

Turning to TAATTCACGTGAATGT, the “relative binding free energy” value is 0.35 kcal/mol. The figure for AAGTGCACGTGTTGTG is -0.14 kcal/mol. As for TTATTCACGTGTGAGC, the figure is 0.28 kcal/mol; as for GGTAACACGTGGAGCG, 0.14 kcal/mol; as for CAAGGCACGTGTTGGG, -0.06 kcal/mol. As for ATGTACACGTGTTTTG, the figure is 0.05 kcal/mol. For TTTTGCACGTGAGTTC, the “relative binding free energy” value was 0.33 kcal/mol. The figure for CGGATCACGTGGTGGT is 0.11 kcal/mol; for ATGGGCACGTGTAGGG it is -0.07 kcal/mol; for GCAGGCACGTGTGTGG it is 0.03 kcal/mol. For the sequence ATATTCACGTGGGGTG, the “relative binding free energy” value worked out at 0.09 kcal/mol.

On to GATGGCACGTGCGATT, for which the “relative binding free energy” value is 0.18 kcal/mol.

On to AAAATCACGTGTAGGG, for which the “relative binding free energy” value was found to be 0.09 kcal/mol. The figure for TAGTTCACGTGGCTAT is 0.29 kcal/mol; for TATGACACGTGGGAGA it is -0.08 kcal/mol. As to TTTTGCACGTGCTAGG, the “relative binding free energy” value is -0.04 kcal/mol. Consider ACTTGCACGTGGTGAG, for which the “relative binding free energy” value was -0.12 kcal/mol. The figure for CTGGTCACGTGAAAGG is 0.24 kcal/mol. As for AGTGGCACGTGTCGGA, the figure is -0.03 kcal/mol. As for ATACTCACGTGGGGGC, the “relative binding free energy” value was 0.1 kcal/mol. The figure for AATTGCACGTGGATTG is 0.05 kcal/mol; for TGTTTCACGTGAGGAC it is 0.28 kcal/mol.

For TGGTGCACGTGGGTTA, the “relative binding free energy” value is -0.15 kcal/mol. As for TGTTTCACGTGAGCGT, the figure is 0.25 kcal/mol. For the sequence GACTTCACGTGGGGTA, the “relative binding free energy” value stood at 0.19 kcal/mol.

For the sequence AATTTCACGTGATTAA, the “relative binding free energy” value amounted to 0.17 kcal/mol.

Take GATTGCACGTGTAGGG: the “relative binding free energy” value was -0.02 kcal/mol. For TATATCACGTGATAGA, the “relative binding free energy” value turned out to be 0.36 kcal/mol.

As for GGCAACACGTGTAGGG, the “relative binding free energy” value was determined as 0.24 kcal/mol. As for TAATACACGTGTGGTT, the figure is 0.06 kcal/mol; as for ATCGACACGTGTGTTG, 0.04 kcal/mol; as for GGGTTCACGTGGGGTC, 0.27 kcal/mol. The figure for GGTTTCACGTGGAGGG is 0.26 kcal/mol. On to ATTAACACGTGTGGGA, for which the “relative binding free energy” value amounted to 0.07 kcal/mol. As for GCTATCACGTGAGGTT, the figure is 0.24 kcal/mol; as for GTGGGCACGTGTGATT, 0 kcal/mol. The figure for CGAGGCACGTGTCGGG is -0.17 kcal/mol. Regarding AGGTTCACGTGTTAGC, the “relative binding free energy” value stood at 0.24 kcal/mol. As for ATTGACACGTGGTGTC, the “relative binding free energy” value is -0.18 kcal/mol. As for CATATCACGTGGGGAG, the figure is 0.04 kcal/mol; as for TAGAGCACGTGGGGCG, -0.21 kcal/mol. The figure for GATTGCACGTGGGCGT is -0.12 kcal/mol; for TGGGCCACGTGGGAGG it is -0.18 kcal/mol. As for TGCTTCACGTGGCTTT, the figure is 0.17 kcal/mol.

For AGGGGCACGTGCTAGA, the “relative binding free energy” value is -0.1 kcal/mol. As to CAGGTCACGTGGTGAG, the “relative binding free energy” value turned out to be 0.07 kcal/mol. The figure for CGTGACACGTGTAGTA is 0.08 kcal/mol; for TTAAGCACGTGGAAAT it is 0.04 kcal/mol; for TTGAGCACGTGCGTTA it is -0.07 kcal/mol. As for GGTGCCACGTGGTTCT, the figure is 0.14 kcal/mol. On to TGAAGCACGTGGTTCG, for which the “relative binding free energy” value is -0.24 kcal/mol. As for TGCCTCACGTGCTGGG, the figure is 0.11 kcal/mol; as for TGGCACACGTGCAGTG, 0.12 kcal/mol. Regarding AAAACCACGTGGGGGG, the “relative binding free energy” value was -0.19 kcal/mol. Regarding ACATGCACGTGGGTAT, the “relative binding free energy” value was -0.17 kcal/mol. The figure for TTCCTCACGTGGTGGG is 0.21 kcal/mol; for ATAGTCACGTGGTTGG it is 0.09 kcal/mol. The figure for ATATCCACGTGGTTGG is 0.03 kcal/mol; for TGTCTCACGTGTTGCG it is 0.17 kcal/mol. As for GAGCTCACGTGGGTTA, the figure is 0.15 kcal/mol.

In the case of CGGGTCACGTGGCGGT, the “relative binding free energy” value was found to be 0.02 kcal/mol. The figure for TGTAGCACGTGCGGGC is -0.22 kcal/mol.

Regarding AGGGGCACGTGGCGAC, the “relative binding free energy” value was -0.18 kcal/mol. For TGTTCCACGTGTGTAT, the “relative binding free energy” value was found to be 0.14 kcal/mol. As for CGGTTCACGTGGTGGG, the figure is 0.22 kcal/mol; as for GTGGGCACGTGATCGT, -0.09 kcal/mol; as for ATTAGCACGTGAGGTC, 0.22 kcal/mol. The figure for CTGTGCACGTGGGGCC is -0.2 kcal/mol; for AGGTGCACGTGGGACG it is -0.11 kcal/mol; for AAATGCACGTGGGCGA it is -0.12 kcal/mol. As for AATAGCACGTGGAGTG, the figure is -0.23 kcal/mol; as for CAAGGCACGTGTGTTT, -0.07 kcal/mol; as for GGGAACACGTGGAGTA, 0.01 kcal/mol. For the sequence TTAAGCACGTGTATTA, the “relative binding free energy” value is -0.17 kcal/mol.

For AGTGTCACGTGATCGG, the “relative binding free energy” value amounted to 0.14 kcal/mol. The figure for GAGCACACGTGGTGGG is -0.04 kcal/mol; for AGTGTCACGTGCGCGT it is -0.18 kcal/mol. The figure for ATGAGCACGTGTTAAT is -0.13 kcal/mol; for ATTGCCACGTGGTTAG it is -0.15 kcal/mol. The figure for CTGGACACGTGTGTTG is 0.05 kcal/mol; for GGTGGCACGTGGGTTC it is -0.15 kcal/mol; for GGGGACACGTGTGGAG it is 0.05 kcal/mol. For the sequence AGATGCACGTGTAGTA, the “relative binding free energy” value was 0.02 kcal/mol. As for TGAGCCACGTGGGGCT, the figure is -0.16 kcal/mol; as for AGTTTCACGTGTTACT, 0.26 kcal/mol.

As to TTGTTCACGTGCAGGA, the “relative binding free energy” value worked out at 0.21 kcal/mol. Turning to CGGTGCACGTGAGTCG, the “relative binding free energy” value came out at 0.28 kcal/mol. The figure for TGCAACACGTGGGGGG is -0.13 kcal/mol; for GTTGTCACGTGTTCAA it is 0.14 kcal/mol. Regarding AGGATCACGTGTGGTT, the “relative binding free energy” value amounted to 0.19 kcal/mol. The figure for TATTGCACGTGCGATA is 0.05 kcal/mol; for TAGAACACGTGACGGG it is 0.23 kcal/mol; for AACGTCACGTGTAGGG it is -0.07 kcal/mol.

On to AGTGACACGTGTCAGG, for which the “relative binding free energy” value was -0.05 kcal/mol. As for GAAGCCACGTGGAGGG, the figure is 0.07 kcal/mol; as for GAGATCACGTGGCGTT, 0.16 kcal/mol; as for GACGGCACGTGTTTGG, 0 kcal/mol.

For the sequence GGCGCCACGTGTGTTT, the “relative binding free energy” value was -0.02 kcal/mol. As for TTAAGCACGTGGTGAC, the figure is -0.1 kcal/mol. The figure for TATAGCACGTGTAGTG is -0.11 kcal/mol. The figure for TTTCTCACGTGGGCGA is 0.19 kcal/mol; for ATGGCCACGTGGTGGG it is -0.13 kcal/mol. As to TTTTGCACGTGCCTGG, the “relative binding free energy” value is -0.16 kcal/mol. TTTTCCACGTGTGGGT: the “relative binding free energy” value came out at 0.05 kcal/mol. Take TTCTTCACGTGCATTG: the “relative binding free energy” value was 0.26 kcal/mol.

For the sequence GGTTCCACGTGTGGCG, the “relative binding free energy” value was 0.17 kcal/mol. As for TTTTACACGTGGTATT, the figure is 0.13 kcal/mol; as for TGCAGCACGTGTCGGT, 0.06 kcal/mol.

As to TATTCCACGTGGTTCG, the “relative binding free energy” value stood at 0.13 kcal/mol.

TTTGTCACGTGTCACG: the “relative binding free energy” value worked out at 0.1 kcal/mol. As for TGGGCCACGTGATTAT, the figure is 0.16 kcal/mol; as for GTGACCACGTGGGTTA, -0.19 kcal/mol.

As for GTTAGCACGTGGGTGG, the “relative binding free energy” value is -0.13 kcal/mol. The figure for TCGGTCACGTGGTGGA is 0.05 kcal/mol. As for TGGTCCACGTGGGTTT, the figure is -0.11 kcal/mol; as for ATTATCACGTGGTGGG, 0.1 kcal/mol. Regarding GTTTACACGTGCGATG, the “relative binding free energy” value came to 0.11 kcal/mol. The figure for TAGAGCACGTGAGGCG is 0.08 kcal/mol; for ATATTCACGTGAGTGA it is 0.26 kcal/mol; for TTGGACACGTGGAGGC it is 0.06 kcal/mol. The figure for GCGTGCACGTGTGGCT is -0.09 kcal/mol; for TTAAGCACGTGAATTG it is 0.19 kcal/mol; for GTGGGCACGTGCTTGC it is -0.11 kcal/mol. As for GTTTTCACGTGTTTCT, the figure is 0.29 kcal/mol. As to GAATTCACGTGTAGAA, the “relative binding free energy” value was 0.5 kcal/mol. Regarding GGATTCACGTGAGATT, the “relative binding free energy” value came to 0.47 kcal/mol. Take TGATCCACGTGTTAGG: the “relative binding free energy” value is -0.04 kcal/mol.

Turning to ATGGTCACGTGCGTGT, the “relative binding free energy” value was determined as 0.01 kcal/mol. As for GGTGGCACGTGGGAGT, the figure is -0.09 kcal/mol. As for GATATCACGTGAGGGC, the figure is 0.47 kcal/mol. As for TATTGCACGTGAATTG, the figure is 0.24 kcal/mol. TTGGTCACGTGTCAGG: the “relative binding free energy” value was 0.2 kcal/mol. As for TCGTGCACGTGAGGAT, the figure is 0.24 kcal/mol; as for GGACGCACGTGTTGAG, 0 kcal/mol; as for GGTTTCACGTGGGAGT, 0.4 kcal/mol.

For GTGTGCACGTGGGAAA, the “relative binding free energy” value is 0.06 kcal/mol. The figure for GTGGGCACGTGCCTTG is -0.16 kcal/mol; for ATTGACACGTGGCTGT it is -0.15 kcal/mol. For the sequence GGAAGCACGTGAGATT, the “relative binding free energy” value came to 0.15 kcal/mol. As for AATCTCACGTGCGGTT, the figure is 0.26 kcal/mol; as for TGGTACACGTGGACGA, 0.32 kcal/mol.
